Some of the results follow. These are noisy estimates, calculated here from bound and input reads.
The sequences below were run against T1, Pho4 (S. cerevisiae) (UniProt P07270) (assay: relative binding free energy (BET-seq); higher = weaker binding). Settings: reference: library average.
T1 sequence: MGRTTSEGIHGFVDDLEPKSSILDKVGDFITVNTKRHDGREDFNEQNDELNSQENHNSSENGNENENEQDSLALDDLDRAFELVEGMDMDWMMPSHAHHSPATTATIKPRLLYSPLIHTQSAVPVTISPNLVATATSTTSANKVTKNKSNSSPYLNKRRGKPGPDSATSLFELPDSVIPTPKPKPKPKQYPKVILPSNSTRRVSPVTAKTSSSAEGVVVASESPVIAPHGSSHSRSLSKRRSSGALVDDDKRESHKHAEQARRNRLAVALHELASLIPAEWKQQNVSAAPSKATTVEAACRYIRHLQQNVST

Sequence | relative binding free energy [kcal/mol]
GGTATCACGTGGCGGC | 0.18
TGTAACACGTGATCTG | 0.1
GAAGTCACGTGGGCTG | -0.14
GGTTGCACGTGATCGG | 0.16
ATTTACACGTGTTTCG | -0.05
GGTGGCACGTGTTGGG | 0.1
CGGGTCACGTGTCTGT | 0.1
GGTGACACGTGATCGT | -0.01
GTAGCCACGTGGAGGG | 0
TAAGTCACGTGAGGTA | 0.24
TAAGTCACGTGGTAGA | 0.14
CTTGACACGTGCTGGG | -0.08
GGAGTCACGTGCTTTG | 0.17
TGTGGCACGTGGAAGG | -0.04
GTCGACACGTGGATGG | 0.14
TGTGGCACGTGGGCGG | -0.16
GTGGCCACGTGTTAAT | 0.09
AAGGCCACGTGTTTTG | -0.05
ATTGACACGTGGTTAT | 0.03
CGGGTCACGTGATAAT | 0.3
TCAGTCACGTGACGGT | 0.25
GATGGCACGTGTTTCG | -0.08
CGATTCACGTGAGTGT | 0.4
TTACTCACGTGGGTAA | 0.05
TATTTCACGTGAGAGA | 0.34
CGTATCACGTGAGGGG | 0.25

Sequence | relative binding free energy [kcal/mol]
TAGGTCACGTGTTACA | 0.13
GGTGGCACGTGAATGC | 0.26
TTGTGCACGTGGATTT | 0.15
CCAATCACGTGGGGGT | 0.03
TGAATCACGTGGGGCG | 0.16
TTATACACGTGTATCT | 0.05
GTAGACACGTGCGGTA | -0.04
CATTACACGTGGCGTT | 0.19
GTATTCACGTGACGGA | 0.39
GGGATCACGTGGAGTG | 0.13
GTGTTCACGTGGACCG | 0.29
AGGCACACGTGGGTGT | -0.09
TAGGGCACGTGTCTTA | 0.04
TCTAGCACGTGGATTT | 0.01
AGTTGCACGTGGTGCA | -0.02
CTTATCACGTGTAATG | 0.16
TTATACACGTGTTATA | 0.09
TATTCCACGTGGTTTG | -0.06
CTTTTCACGTGGGGTG | 0.12
GCAATCACGTGTAGGT | 0.26
AAGGCCACGTGGTGTT | -0.17
TGTGTCACGTGTGAGC | 0.17
GTACACACGTGGTGTT | 0.04
GGTTGCACGTGAGGTT | 0.22
TCACGCACGTGGGGGA | -0.19
TTATTCACGTGTGGAC | 0.37

Sequence | relative binding free energy [kcal/mol]
AGGTCCACGTGTTGGG | 0.07
TAATTCACGTGTTATT | 0.22
TGCAGCACGTGGTTGG | -0.17
CGTCTCACGTGATGGG | 0.24
GTGTACACGTGCTGAG | 0.05
TTCTTCACGTGTAGGA | 0.25
ATATGCACGTGAGTTC | 0.19
AGGAACACGTGTAAGG | 0.1
GGTTTCACGTGAAGGA | 0.5
GAATTCACGTGCTTGT | 0.24
TTGAGCACGTGACTTT | 0.04
ATTATCACGTGAGTTC | 0.27
AATTTCACGTGGTGGT | 0.33
TTGTGCACGTGTATGC | 0.04
ATGTTCACGTGAAAGG | 0.42
TAGCTCACGTGGTTGG | 0.21
CTGGGCACGTGATTGC | 0.08
TTTAACACGTGGTTCA | -0.11
TGTTGCACGTGATAAA | 0.02
CTGTACACGTGCAGGG | 0.07
GCCGGCACGTGGGTTG | -0.23
TTTATCACGTGGAGGT | 0.29
GGGGTCACGTGATGGC | 0.33
GTCTTCACGTGGTGTG | 0.12
TATATCACGTGGCCGG | -0.01
TAATTCACGTGCGGAG | 0.35

Sequence | relative binding free energy [kcal/mol]
GAGGGCACGTGAGGTT | 0.13
GGCAGCACGTGGGGGT | -0.2
CGATTCACGTGTTTGT | 0.26
GATCACACGTGGGGTT | 0.08
CCTATCACGTGGGTAT | 0.18
GGGTGCACGTGTAGCT | -0.05
TAATACACGTGGAGGT | 0.02
CGAGGCACGTGGCATG | -0.16
TGTATCACGTGGTACT | 0.04
TGAATCACGTGGCTTA | 0.1
TTGAACACGTGCGGTT | 0.01
GACCGCACGTGGGGTT | -0.06
AGAGGCACGTGGGAGA | -0.22
TTGTGCACGTGTTGAG | 0.05
ATCGGCACGTGTTTTG | -0.06
GGTGACACGTGGACAG | 0.13
AATTTCACGTGAGGGA | 0.35
CTGAGCACGTGGGGGG | -0.16
GCTTGCACGTGTTTTT | 0.08
TTGATCACGTGCATTG | 0.22
TGGCACACGTGGGGCT | -0.13
TAAGTCACGTGTTTTA | 0
GGTTGCACGTGTAAAT | 0.17
GTGCTCACGTGGTTGA | 0.11
GGGCGCACGTGGGGAG | -0.02
CGACGCACGTGGTTGT | -0.13

Sequence | relative binding free energy [kcal/mol]
ATGGGCACGTGTGAAT | 0.01
TTTAACACGTGAGTTG | 0.16
TGATACACGTGTAATT | 0.03
GGTGACACGTGTTGTC | 0.05
TAGTGCACGTGTGCGG | 0.03
GGTTACACGTGGACAG | 0.13
TGGATCACGTGTGAGA | 0.33
TTGCTCACGTGTTCGG | 0.18
TTGGTCACGTGCGGCG | 0.08
GAGTCCACGTGGGGGG | -0.04
TTGCACACGTGTGTGA | 0.16
TTAGTCACGTGATAAT | 0.12
ATGTTCACGTGGGGGT | 0.18
AATGGCACGTGAGGAT | -0.08
AGCTGCACGTGAAGGT | 0.25
TATTTCACGTGTTATC | 0.41
TAACGCACGTGGGGTG | -0.41
CTGGTCACGTGTATGT | 0.14
GGGCGCACGTGATATG | 0.15
AGGCTCACGTGTACGG | 0.3
TGCGACACGTGGGTGT | -0.1
TATTCCACGTGAAGGG | 0.24
CATCTCACGTGTGGTT | 0.4
ATGTGCACGTGGATTA | 0.09
GTGTGCACGTGTGCCA | 0.06
TAGGGCACGTGGAGGT | -0.13

Sequence | relative binding free energy [kcal/mol]
CGGTGCACGTGTAGGG | -0.04
ATCGTCACGTGTGGAT | 0.37
GTTGGCACGTGAGGAA | 0.22
GGTAGCACGTGGGCCA | -0.14
TGCGGCACGTGATGGT | 0
TGTGTCACGTGTACTT | 0.15
AGTATCACGTGTGAAG | 0.14
TTAGTCACGTGTTATT | 0.19
CGTGGCACGTGAGCGT | 0.03
GCTTTCACGTGGTTAC | 0.49
GGATGCACGTGGCGAG | -0.11
TTGTGCACGTGCGATT | -0.09
TGTATCACGTGTTCTG | 0.22
TATTGCACGTGGATTT | 0.15
TTACACACGTGTGGTT | 0.11
TTTGGCACGTGGTGTA | -0.2
GCAGACACGTGCGGGG | 0.02
CTGTACACGTGTGTGG | 0.03
TTTTACACGTGTTAAT | 0.1
TGGGGCACGTGGCGCA | -0.27
TAGGTCACGTGAAGCT | 0.22
ATTGGCACGTGGAGGA | -0.11
TAGTGCACGTGCTGAG | 0.05
TTCAGCACGTGTGTGA | 0
ATTGCCACGTGGCGAG | -0.06
TGAGTCACGTGTGACG | 0.35

Sequence | relative binding free energy [kcal/mol]
ATATGCACGTGCGTAT | -0.03
CTGGTCACGTGTTTTT | 0.23
GCTTGCACGTGAGGGG | 0.2
AACTACACGTGTGGGG | 0.09
AGTTTCACGTGGATGT | 0.22
GAATGCACGTGTTGGC | 0.14
GTTGGCACGTGAGGCC | 0.23
CTGATCACGTGATGTG | 0.27
TGTTGCACGTGCATGG | -0.11
ATCGACACGTGCTTGG | 0.14
TGAGGCACGTGAAGGT | 0.1
TGTCTCACGTGTTTCG | 0.21
GGGGCCACGTGTGACG | 0.1
TGAGGCACGTGTGATC | -0.01
ATGGTCACGTGTCCTT | 0.25
GGTCTCACGTGGATGT | 0.27
GGTATCACGTGTGCGG | 0.16
AGTCTCACGTGATGGA | 0.41
ATGGGCACGTGCTATT | -0.07
TTGAGCACGTGTCTTA | -0.05
GTAAACACGTGATTTA | 0.36
TATGGCACGTGTGTAG | -0.05
ACTTGCACGTGGCGGG | -0.09
ATCGGCACGTGGGGGG | -0.18
TTGTACACGTGGAGTA | 0.14
AGAGGCACGTGCTATT | 0.02

Sequence | relative binding free energy [kcal/mol]
TGCGGCACGTGGGAAA | -0.05
ATCGTCACGTGTAGTG | 0.02
GGAGACACGTGGAAGG | 0.17
GTAATCACGTGTTAGG | 0.19
CATTGCACGTGGATTT | -0.07
GTGGGCACGTGGTAGT | -0.05
CTTAGCACGTGGTGCG | -0.16
TTTGTCACGTGAAGTC | 0.39
CTGGACACGTGCGCGG | 0.1
ACTGTCACGTGTTGGA | 0.18
GGATCCACGTGTTGTG | 0
TTGGTCACGTGTCTCG | 0.1
ATATGCACGTGATGCG | -0.12
TATGGCACGTGTGAAA | -0.05
GGTAGCACGTGGCGAG | -0.06
TGGGACACGTGGACTT | 0.1
CTGTGCACGTGTGGAA | 0.06
AAGTACACGTGCGGGG | 0.06
GTGGTCACGTGAGCAT | 0.38
TGCATCACGTGACGTT | 0.31
GGCGACACGTGATTGT | 0.32
GTGGACACGTGCATTG | 0.08
ACCGGCACGTGGGTGG | -0.26
AGGGACACGTGGTCGT | -0.04
AGCTTCACGTGTAGGA | 0.23
TTACTCACGTGAATGT | 0.42

Sequence | relative binding free energy [kcal/mol]
AGGTGCACGTGGTGAA | 0.08
GTTGTCACGTGTGCCT | 0.11
GATGGCACGTGCTGGT | -0.01
GGCTACACGTGTGGAA | 0.29
TATGGCACGTGTGAGA | -0.08
TGCTTCACGTGTTAAT | 0.2
ATGTTCACGTGGGAAC | 0.17
GTTCGCACGTGCGGGA | -0.07
GATTTCACGTGTCTTT | 0.45
GGTGGCACGTGAACTG | 0.21
AGTGCCACGTGGGGAT | -0.07
TTGTGCACGTGGCAAG | -0.17
TTCGGCACGTGGTTTT | -0.08
GGTTGCACGTGGGCAA | -0.11
GGGACCACGTGAGGAG | 0.23
TTGGACACGTGAAGGC | 0.29
TGGGACACGTGGAGAG | 0.07
AGATTCACGTGTTGAG | 0.21
GGCGGCACGTGGCACG | -0.1
TTAGGCACGTGAAAGA | 0.1
AAGTTCACGTGGGGCG | 0.22
AGTTACACGTGGTGTT | -0.03

From the BET-seq Pho4 binding data (Le et al. 2018)
